In PubChem BioAssay AID651820 (National Center for Advancing Translational Sciences (NCATS), 2012):
Values joined by “and” are separate entries in the source; they are usually repeats but may differ in a detail not shown here. Identical values can stand only once. Among all 340,000 compounds or so, about 12,000 (3.5%) were called active. Inconclusive means that the source gave no clear call. Such entries were picked first, then a sample of the others. The call rests on the fitted dose curve; in most records, active means well fitted inhibition curve with a large enough effect; inconclusive means small, poorly fitted or top-dose-only effect, or another doubt; inactive means no such curve, though single readings can be large or run the other way. A potency beside an inconclusive call is a rough fit, not a confirmed value.

assay: qHTS Assay for Inhibitors of Hepatitis C Virus (HCV); conditions: Huh7.5.1 HCVcc-Cre (HCVcc is cell-culture hepatitis C virus) infection, luciferase reporter, 44 h; activity change, negative = inhibition: at 41.8 µM (top of the series)
How it was run: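 Luciferase read-out (15 sec integration) after a 15 min room-temperature substrate step quantifies HCVcc-Cre infection. Cells, 1,000 per well, had compound added 4 h post-plating, then virus at ~0.5 moi, and were cultured 44 h.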
On the % scale 0 is the no-effect control and ±100 the full control effect; potency means the concentration at half of the fitted maximal effect; tags describe the fitted curve by direction and shape.

With O=C(NC1CCSc2ccccc21)c1cc(S(=O)(=O)N2CCOCC2)ccc1Cl (stereo unspecified) as the molecule, how does the “activity change, negative = inhibition” value read?
Its value is inactive: -8.54%.

With Cc1cc(C(=O)C(C)OC(=O)c2ccc(NC(=O)CC#N)cc2)c(C)n1-c1ccccc1 (stereo unspecified) as the molecule, how does the Potency read?
Its Potency is inconclusive: 31.6 µM [inhibitor, single point].

For COc1ccc(C)cc1NC(=O)C1CCCN(S(=O)(=O)c2cccc3cccnc23)C1 (stereo unspecified), which Potency is on record?
Its Potency is inconclusive: 17.8 µM [inhibitor, single point].

For COc1ccc(C(C)(C)C)cc1NC(=O)Cn1cnnn1, which “activity change, negative = inhibition” value is on record?
Its value is inactive: 21.2%.

For Cc1ccc(C(C(=O)NC2CCCC2)N(C(=O)Cc2cccs2)c2ccc(C)c(C)c2)o1 (stereo unspecified), which Potency is on record?
Its Potency is inconclusive: 10 µM [inhibitor, partial curve].

For COc1cc2c(cc1OC)C(C)N(C(=O)c1ccc(C)o1)CC2 (stereo unspecified), which Potency is on record?
The Potency was inconclusive: 31.6 µM [inhibitor, single point].

For CN(C)CCCN(C(=O)c1ccc(S(=O)(=O)N2CCc3ccccc3C2)cc1)c1nc2ccc(F)cc2s1, which Potency is on record?
The Potency was inconclusive: 22.4 µM [inhibitor, single point].

Which Potency does the source give for C/C(=N\N=C(N)N)c1ccc(Cl)cc1Cl here?
The Potency was inconclusive: 0.501 µM [inhibitor, full curve, poor fit].

For Cc1ccc(-c2cc(C(=O)NCCCN3CCOCC3)c3ccccc3n2)cc1C, which Potency is on record?
The Potency was inconclusive: 25.1 µM [inhibitor, single point].

For N#Cc1cc2c(nc1SCC(=O)Nc1nccs1)CCCCC2, which Potency is on record?
Its Potency is inconclusive: 25.1 µM [inhibitor, single point] and inconclusive: 3.16 µM [inhibitor, single point].

Which Potency does the source give for CCCc1nc2ccccc2c(=O)n1CCc1ccccc1 here?
The Potency was inconclusive: 10 µM [inhibitor, partial curve].

For COc1cc(NC(=O)CN2CCN(S(=O)(=O)/C=C/c3ccccc3)CC2)cc(OC)c1OC, which Potency is on record?
Its Potency is inconclusive: 12.6 µM [inhibitor, single point].

For CC(=O)/C(N=Nc1cccc(C(F)(F)F)c1)=C(\C)O, which Potency is on record?
Its Potency is inconclusive: 31.6 µM [inhibitor, single point].

Which “activity change, negative = inhibition” value does the source give for CC(=O)c1ccc(S(=O)(=O)NC2CC(=O)N(c3ccc(C)c(C)c3)C2)cc1 (stereo unspecified) here?
The value was inactive: -2.19%.

For CCOC(=O)c1c(C)oc2c1cc(O)c1ccccc12, which Potency is on record?
Its Potency is active: 31.6 µM.

For CCOC(=O)C1=C(COC(=O)COc2ccccc2C(C)C)NC(=O)NC1C (stereo unspecified), which “activity change, negative = inhibition” value is on record?
The value was inactive: 17.9%.

Which Potency does the source give for CCN(CC)S(=O)(=O)c1cccc(NC(=O)CNc2cccc(S(=O)(=O)N3CCOCC3)c2)c1 here?
The Potency was active: 0.562 µM.

Which “activity change, negative = inhibition” value does the source give for O=C(Nc1ccc(F)cc1)c1ccc2c(=O)n(CC3CCCO3)c(=S)[nH]c2c1 (stereo unspecified) here?
The value was inactive: -23%.

For C=CCNc1nc(Nc2ccc(OC)cc2)nc(OCC)n1, which Potency is on record?
The Potency was inconclusive: 11.2 µM [inhibitor, single point].

For O=C(Nc1cccc(-c2nc3ccccc3o2)c1)c1ccc(N2C(=O)C3C4C=CC(C4)C3C2=O)cc1 (stereo unspecified), which Potency is on record?
Its Potency is inconclusive: 5.62 µM [inhibitor, single point].

For CC(CC(=O)NCCc1ccc(F)cc1)c1ccccc1 (stereo unspecified), which “activity change, negative = inhibition” value is on record?
Its value is inactive: 0.861%.

Which Potency does the source give for CCc1nc(N)nc(N)c1-c1ccc(Cl)c([N+](=O)[O-])c1 here?
Its Potency is inconclusive: 0.501 µM [inhibitor, full curve, poor fit].

For COC1(OC)C(=N/O)/C(=N\O)CCC1O (stereo unspecified), which “activity change, negative = inhibition” value is on record?
Its value is inactive: 16.8%.

For O=c1[nH]c2cc3c(cc2cc1C(c1nnnn1C1CCCCC1)N1CCSCC1)OCCO3 (stereo unspecified), which “activity change, negative = inhibition” value is on record?
Its value is inactive: 9.72%.

For Cc1[nH]c2ccccc2c1CCN(Cc1cccnc1)C(=S)Nc1cccc(F)c1, which Potency is on record?
Its Potency is active: 15.8 µM.

For N#Cc1c(N)nc(SC2CCCCC2=O)c(C#N)c1-c1ccco1 (stereo unspecified), which Potency is on record?
The Potency was inconclusive: 10 µM [inhibitor, single point].

Which Potency does the source give for CCOc1ccccc1-c1nc(-c2ccc(NC(=O)c3ccc(Br)o3)cc2)no1 here?
The Potency was inconclusive: 2.24 µM [inhibitor, full curve].

Which Potency does the source give for OCCNc1nc(-c2ccccc2)nc2ccccc12 here?
The Potency was active: 7.94 µM.

With CCN1CCN(S(=O)(=O)c2ccc(Cl)c(C(=O)N(C)Cc3ccc(F)cc3)c2)CC1 as the molecule, how does the Potency read?
The Potency was inconclusive: 31.6 µM [inhibitor, single point].

With Cc1ccc(C)n1-c1ccc(C(=O)Nc2ccccc2F)cc1 as the molecule, how does the “activity change, negative = inhibition” value read?
Its value is inactive: -9.42%.

For CCOC(=O)N1CCN(C(=O)CS(=O)(=O)Cc2nc(-c3ccccc3C)oc2C)CC1, which Potency is on record?
Its Potency is inconclusive: 22.4 µM [inhibitor, single point].

With Cc1cc(C(=O)CSc2nnc(-c3cccs3)o2)c(C)n1-c1ccccc1 as the molecule, how does the Potency read?
Its Potency is active: 8.91 µM.

With Cc1ccc(C)c(S(=O)(=O)N2CCN(C(=O)Cc3sc(C)nc3-c3ccc(F)cc3)CC2)c1 as the molecule, how does the Potency read?
The Potency was inconclusive: 31.6 µM [inhibitor, single point].

With COc1ccc(C(C(O)C(=O)c2c[nH]c3ccccc23)N2CCN(c3ccc(OC)cc3)CC2)cc1 (stereo unspecified) as the molecule, how does the Potency read?
Its Potency is inconclusive: 31.6 µM [inhibitor, single point].

Which Potency does the source give for CC1(c2ccccc2)NC(=O)N(CC(=O)Nc2cccc(/C=C/c3ccccn3)c2)C1=O (stereo unspecified) here?
Its Potency is inconclusive: 0.501 µM [inhibitor, partial curve, poor fit].

With CCOC(=O)c1sc(N(Cc2ccccc2)C(=O)CSc2ncn[nH]2)nc1C as the molecule, how does the Potency read?
Its Potency is inconclusive: 7.08 µM [inhibitor, partial curve].

For COc1ccc(-c2sc3cc(OC)c(OC)cc3c2C#CC2(O)CCCCC2)cc1, which Potency is on record?
Its Potency is active: 15.8 µM.

With COCCN=c1scc(-c2cc(OC)c(OC)c(OC)c2)n1/N=C/c1c(C)[nH]c2ccccc12 as the molecule, how does the Potency read?
Its Potency is active: 8.91 µM.

For CCOC(=O)c1c(CN2CCN(c3ccccc3)CC2)oc2cc(Br)c(O)cc12, which Potency is on record?
The Potency was inconclusive: 15.8 µM [inhibitor, single point].

Which Potency does the source give for CCCSc1nc(-c2ccccc2)cc(C(F)(F)F)c1C#N here?
Its Potency is inconclusive: 10 µM [inhibitor, partial curve].

With C/C(=N\Nc1ccc(C(=O)c2c(C)cc3ccccn23)cc1[N+](=O)[O-])c1ccc(O)cc1 as the molecule, how does the “activity change, negative = inhibition” value read?
Its value is inactive: -6.65%.

Which Potency does the source give for Cc1cc(C)c(C(=O)/C=C/c2cccc3ccccc23)c(=O)[nH]1 here?
The Potency was active: 11.2 µM.

Which “activity change, negative = inhibition” value does the source give for O=C1CCC([N+](=O)[O-])C(c2cc(Br)ccc2F)N1 (stereo unspecified) here?
The value was inactive: 6.82%.

Which Potency does the source give for COc1ccc2c(c1)CCC1C2=NN(/C(C)=C\C(C)=O)C1c1ccc(F)cc1 (stereo unspecified) here?
The Potency was inconclusive: 12.6 µM [inhibitor, partial curve].

Which “activity change, negative = inhibition” value does the source give for CC(C)CNC(=S)NC1CC2CCCC(C1)N2Cc1cccs1 (stereo unspecified) here?
Its value is inactive: -4.28%.

With CN(C)CCCN(C(=O)c1ccc(S(=O)(=O)N(C)C2CCCCC2)cc1)c1nc2ccc(Br)cc2s1 as the molecule, how does the Potency read?
Its Potency is inconclusive: 22.4 µM [inhibitor, single point].

With COC(=O)c1ccccc1NC(=O)COC(=O)c1ccco1 as the molecule, how does the Potency read?
The Potency was inconclusive: 5.62 µM [inhibitor, single point].

With CCOc1ccc(-c2nonc2NC(=O)c2ccco2)cc1OCC as the molecule, how does the “activity change, negative = inhibition” value read?
The value was inactive: -20.8%.

Which “activity change, negative = inhibition” value does the source give for COc1ccc(C(=O)C2CCCN(Cc3cccc4c3OCO4)C2)cc1OC (stereo unspecified) here?
Its value is inactive: -7.49%.

For CC(C)C[C@H](NC(=O)NCc1ccccc1Cl)C(=O)O, which “activity change, negative = inhibition” value is on record?
The value was inactive: 6.32%.

Which Potency does the source give for Cc1ccccc1Nc1c(C)c(C)nc2ncnn12 here?
The Potency was active: 11.2 µM.

For COc1ccc(C(=O)COc2nc(C)cc(C)c2C#N)cc1, which Potency is on record?
The Potency was inconclusive: 10 µM [inhibitor, single point].

Which Potency does the source give for COc1cc(NC(=O)CSc2nc3ccccc3c(=O)n2C)ccc1NC(=O)c1ccco1 here?
The Potency was inconclusive: 3.16 µM [inhibitor, single point].

With Cc1cc(C)c(C(=O)CSc2nnc(C)s2)c(C)c1 as the molecule, how does the “activity change, negative = inhibition” value read?
The value was inactive: -9.25%.

With Cc1cc(N=Cc2c(O)n(-c3ccc(C)c(C)c3)c(=O)c3ccccc23)no1 as the molecule, how does the “activity change, negative = inhibition” value read?
Its value is inactive: -11.6%.

Which Potency does the source give for Nc1ccc(-c2nc3c(Cl)cc(N)cc3[nH]2)cc1 here?
Its Potency is inconclusive: 2.82 µM [inhibitor, partial curve].

Which Potency does the source give for COc1ccccc1N1CCN(C(=O)CSc2ncnc3c2cnn3-c2ccc(C)c(C)c2)CC1 here?
Its Potency is inconclusive: 12.6 µM [inhibitor, partial curve].

For Cc1csc(SCC(=O)c2c(N)n(CC(C)C)c(=O)n(C)c2=O)n1, which Potency is on record?
The Potency was active: 15.8 µM.

Which Potency does the source give for CC(C)[C@H](NS(=O)(=O)c1cccc(C(F)(F)F)c1)C(=O)OCC(=O)NC(=O)NCc1ccco1 here?
The Potency was active: 11.2 µM.

For CCCCc1nn(-c2cc(Cl)ccc2OC)c2c1C(=O)CCC2, which Potency is on record?
Its Potency is inconclusive: 11.2 µM [inhibitor, single point].

For COc1ccccc1NC(=O)Nc1nc(CC(=O)Nc2cc(F)ccc2F)cs1, which Potency is on record?
Its Potency is inconclusive: 14.1 µM [inhibitor, partial curve].

With Cc1ccc(C(=O)NC2CCN(CC(=O)Nc3cccc([N+](=O)[O-])c3)CC2)cc1 as the molecule, how does the Potency read?
Its Potency is inconclusive: 5.62 µM [inhibitor, single point].

For CCN1CCC(NC(=O)Nc2cc(Cl)ccc2OC)CC1, which “activity change, negative = inhibition” value is on record?
The value was inactive: 0.566%.

With CC(Sc1nc(-c2ccccc2)cc(C(F)(F)F)n1)C(=O)O (stereo unspecified) as the molecule, how does the “activity change, negative = inhibition” value read?
The value was inactive: 13.9%.

Which “activity change, negative = inhibition” value does the source give for Cc1ccc(O)c(N=Cc2cc(Cc3ccccc3)cc([N+](=O)[O-])c2O)c1 here?
Its value is inactive: -19.2%.

For Cc1cccc(OCC(=O)N2CCN(c3nnc(-c4ccccc4)c4ccccc34)CC2)c1, which Potency is on record?
The Potency was inconclusive: 25.1 µM [inhibitor, partial curve, poor fit].

With COc1ccc(-c2sc3ccc(OC)cc3c2-c2ccc(OC)nc2)cc1 as the molecule, how does the Potency read?
Its Potency is inconclusive: 0.501 µM [inhibitor, full curve, poor fit].

Which “activity change, negative = inhibition” value does the source give for O=C(Nc1cccnc1)c1cccc(-c2cc3ccccc3oc2=O)c1 here?
Its value is inactive: 14.7%.

For CCc1cc(=O)oc2c(C)c(OCC(=O)N3CCCc4ccccc43)ccc12, which Potency is on record?
Its Potency is inconclusive: 2.51 µM [inhibitor, full curve].

Which Potency does the source give for CCOc1ccc(NC(=O)c2cc3ccccc3cc2O)cc1 here?
Its Potency is inconclusive: 12.6 µM [inhibitor, partial curve].

Which Potency does the source give for COc1ccc(-c2oc(/N=C/N3CCOCC3)c(C#N)c2-c2ccc(OC)cc2)cc1 here?
The Potency was inconclusive: 11.2 µM [inhibitor, partial curve].
